Assay results as given in paper PMC5512577 (2016).

Biological target: phosphodiesterase 6 delta subunit (PDE6δ), N-terminal histidine-tagged (UniProt O43924 1-150)
Assay: FP; mantGppNHp-loaded Arl; stopped-flow

UniProt O43924, sequence (O43924 whole entry, stated change not applied): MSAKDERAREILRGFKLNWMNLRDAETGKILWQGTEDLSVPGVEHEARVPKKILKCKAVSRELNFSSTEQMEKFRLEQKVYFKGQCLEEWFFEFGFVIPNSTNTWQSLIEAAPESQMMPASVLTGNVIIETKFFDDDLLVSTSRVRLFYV

- koff: 0.92 s⁻¹
B1: N-terminally truncated Arl3 ([…]), bound to GppNHp or mantGppNHp (domain or fragment)
chain: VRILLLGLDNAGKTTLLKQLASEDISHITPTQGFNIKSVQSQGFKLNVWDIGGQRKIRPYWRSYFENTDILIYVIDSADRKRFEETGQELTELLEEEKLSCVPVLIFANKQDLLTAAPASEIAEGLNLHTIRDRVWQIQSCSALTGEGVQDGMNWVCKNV
